This is an account of results in the RNAGym collection of RNA variant scans (doi:10.1093/nar/gkz1192).

The source gives no read counts; variants with many changes may rest on few reads.

B1: CPEB3 Ribozyme (parent)
chain: UAACAGGGGGCCACAGCAGAAGCGUUCACGUCGCAGCCCCUGUCAGAUUCUGGUGAAUCUGCGAAUUCUGCUGUAUAUCUC

This series covers variants of B1. The series can be described thus: self-cleavage, relative activity (ratio to wild type); higher = more cleavage; in vitro, sequencing. An outline of the steps:
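After error-prone PCR and barcoding, CPEB3 ribozyme mutant libraries were transcribed with T7 RNA polymerase at 37°C for 5 hours, then given 15 min with DNase I before an EDTA stop, and they cleaved during both steps. Reverse transcription with template switching preceded Illumina sequencing. Relative activity divides a variant's cleaved/total read fraction by the unmutated ribozyme's. At least 5 reads were required per variant, and three batches were averaged.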
Regarding G10A A21G U49A U60A U69C, the self-cleavage is 0.09. The value for G9U C14U U25C C32G U41A U74C was 0.06; that for G10C A20G U25C U41C U48C was 0.21. In the case of G10C A35G A45U A64G U74C, the self-cleavage is 0.23. The value for G9U U41A A77U was 0.16; that for G10A U26A A35G was 0.59.

With G10A U26G A35G U43C A47G U49A U51A, the self-cleavage came out at 0.07. For G9U G30A A64G, the self-cleavage was 0.05.

For the variant G10A C23U U26A U43C U51C A64U, the self-cleavage was found to be 0.04.

Consider G9U U25G A28U U78C, for which the self-cleavage turned out to be 0.17. Under G10A G22A U41G G52C U80C stands 0.04; under G10A U66C U80C, 0.08; under G10A G24U U69A, 0.12. Turning to G10A A13C U25C, the self-cleavage is 0.4. As to G10A A15G A56G U58C, the self-cleavage worked out at 0.07. The value for G9U G53C A64G was 0.37; that for G10A A18G U41A U43G was 0.05; that for G10C A18G A56G U72A was 0.1. For G10A U41C U49A A56G C71G, the self-cleavage was 0.16. As for G9U C44G U67C U76C, the self-cleavage came out at 0.15.

G10A A13G A21U A65G: the self-cleavage came out at 0.13. Under G10C A15C A20G U26C G63A U76G stands 0.61; under G9U U69C U72C U80C, 0.02. Under G10A C14G G70U stands 0.24; under G9U U51G U67C, 0.13. With G10A U72G U80C, the self-cleavage is 0.09.

On to G10A A28G A45C A56G, for which the self-cleavage turned out to be 0.16. Under G9U U54G U67C stands 0.06; under G9U U51C A57G, 0.27. For the variant G10A A18U C59G U78C U80A, the self-cleavage amounted to 0.04. Under G9U U72C A77C stands 0.07; under G9U U41A U54C, 0.1. Regarding G10A A13U A21G C59A U76C, the self-cleavage amounted to 0.04. For G10C A21G U49C A57U A64G U69A, the self-cleavage turned out to be 0.08. For G10A A35G G36C U43C U49C, the self-cleavage was 0.17. On to G10A A15G U31G A64U, for which the self-cleavage turned out to be 0.05. With G10C A15G A65G, the self-cleavage is 0.24.

Regarding G9U U31C U48C U60C U67C, the self-cleavage was determined as 0.12. Turning to G10A A13G A35G U41A U74A U80A, the self-cleavage was found to be 0.42. Under G9U U31A U43C stands 0.11; under G10C A15G U76C, 0.29; under G10A A15G G30A U48C, 0.17.

Turning to G10A A56U U67C U72A, the self-cleavage was determined as 0.06. In the case of G10A A28G U69C U72A, the self-cleavage turned out to be 0.25. The value for G10A A28U C40U A64G was 0.13; that for G10A C29U G52C was 0.14; that for G10A C11G U49A G52A was 0.07. Under G10A A20G U58A stands 0.04; under G9U G19A U31A U69C U72C, 0.12.

G10A C14U A20G: the self-cleavage was found to be 0.21. G9U U25C A45G U54C U72C: the self-cleavage was found to be 0.23. G10A G19A U25C U72A U80C: the self-cleavage is 0.25. On to G10A A28C A65U U80C, for which the self-cleavage stood at 0.06.

On to G10A A15G U49C U74A, for which the self-cleavage turned out to be 0.19. The value for G10A G19A A21G U26C A45G A56U was 0.03; that for G10A A13U U43C was 0.25; that for G10A A21U U80C was 0.08. Consider G10C A15U A35G U43A U66C, for which the self-cleavage was 0.05.

Take G10A C39G U43C U49C U58A U72C: the self-cleavage was found to be 0.03.

G9U U25C A45G U72A U80C: the self-cleavage amounted to 0.42.

As for G10C A57G U58A A64G, the self-cleavage worked out at 0.1. For G9U U25A U60C U78C U80A, the self-cleavage was found to be 0.11. Under G10A A13G U41C G70A stands 0.32; under G10A U26A U43A U54C C71A, 0.03. Under G9U C12A U26C C40A stands 0.05; under G10A A15U G24A U41A A57U A64U U72C, 0.05. For the variant G10A U26C U76A C79A, the self-cleavage stood at 0.33. Under G10A U60C A64G stands 0.05; under G9U U25A U60C U69G U72C, 0.15. Under G10A A18G A21G U26A U69C U72C stands 0.2; under G10A A35U U41A U69A U80C, 0.03; under G10A C37A C39G C62G, 0.05.

In the case of G10A A28G U51A, the self-cleavage turned out to be 0.19. In the case of G10A A13G A18G A45G U60C, the self-cleavage stood at 0.08.

Regarding G9U U31A U51A U54C, the self-cleavage came to 0.05. Under G10A C29U A47G stands 0.16; under G10A A28G U31C U48C U69C U74C, 0.05.

Regarding G10A G19A G30A U78C, the self-cleavage was 0.14. As to G10A U43G A47U U74C, the self-cleavage was 0.19. As to G10A A21G A35U A47G, the self-cleavage worked out at 0.04. In the case of G10A G36C U69C U72C U76A, the self-cleavage came to 0.05. On to G10A U25C A57U, for which the self-cleavage stood at 0.27. Consider G10A A20U A45U, for which the self-cleavage was determined as 0.15. G10A U43C A64U U72C: the self-cleavage came out at 0.06. The value for G10C A28C A47U U48C was 0.15. Take G10A C14G C39A A45G: the self-cleavage came out at 0.05. In the case of G10A U41C U66A, the self-cleavage was determined as 0.03.

G10A A21C G33U U49C A65G U67C U72A: the self-cleavage is 0.04. G10C A20U U31G U49C: the self-cleavage is 0.06. As for G9U G33U U54A A56G U72C, the self-cleavage is 0.05. Under G9U U43A U78C stands 0.05; under G9U U26C A77G, 0.14. The value for G10A A21G A28U U69A was 0.14. Take G9U U54C C71U: the self-cleavage was found to be 0.36. The value for G10A A13U U31C U76G was 0.24; that for G10A U26C U66C was 0.07; that for G10A A13U U43C G63U A64G was 0. Regarding G9U U25C A28U U66A, the self-cleavage is 0.05. As to G10A A18U U41A U58C, the self-cleavage came to 0.1. The value for G10C A13G C23G U41A A75G was 0.05.

For G9U C11U A28U U51A U69C, the self-cleavage amounted to 0.13. Regarding G10A C29A U49A G52A U80C, the self-cleavage was determined as 0.21. For the variant G10A U60C U67C U80A, the self-cleavage is 0.07. As for G10A A18U U43A A47G A56G C62A A77G, the self-cleavage was found to be 0.03. The value for G10A U41C A47G U54C was 0.33; that for G10A A18U A21G U41A U67C was 0.06; that for G10A A18G G53A U66C U72A was 0.05. In the case of G10A A47G U72A, the self-cleavage turned out to be 0.39.

With G10A C17G U31C U43A A56U U60G, the self-cleavage was determined as 0.04.

Turning to G10A U26A G33U, the self-cleavage was determined as 0.16. Turning to G9U U31A U43C G52A A57G A65G U72C, the self-cleavage amounted to 0.04.

For the variant G10A A13G U26A U31C U54G, the self-cleavage stood at 0.07. The value for G9U U51C U67C was 0.14; that for G10A U31C A64G U66C was 0.04; that for G10C A18U U26C U66A was 0.06. Consider G9U G22A G46A A57G, for which the self-cleavage stood at 0.27. For the variant G10A A45U U76C, the self-cleavage was 0.21.

In the case of G10A U41C U43A U72C, the self-cleavage was found to be 0.55.

In the case of G10C A28G U54C U60C, the self-cleavage amounted to 0.09. Take G9U C40U A47G: the self-cleavage was found to be 0.15. Consider G10C A21G C29G A35G, for which the self-cleavage came out at 0.05. G10A U25C U31C C38A U43C U72C U80C: the self-cleavage turned out to be 0.06. Under G10C A18G C23A U31A U74C U78C stands 0.2; under G10A U31C A45G A57G, 0.13.

As for G10C C14G A20G U51A G52U A56G, the self-cleavage worked out at 0.22. Under G10A U25C G30A U48A U66C stands 0.05.

G9U C27U U31C G36C U58C C71G U80C: the self-cleavage was determined as 0.04. Consider G9U G22C U25C A56G A65G G73A A75G, for which the self-cleavage worked out at 0.05.

For G10A G24U U72C, the self-cleavage was found to be 0.12. The value for G10A A13G A18G A35G U43A was 0.07; that for G10A U25C G33U U72G U80C was 0.04; that for G10A A35G A65G U69C was 0.08.

As for G9U U41C G53A, the self-cleavage was determined as 0.16.

With G9U G22C U66C, the self-cleavage was found to be 0.14.

For the variant G10A C27A U60C C79U, the self-cleavage is 0. On to G10A U31C U51G G63A G70U U72C, for which the self-cleavage stood at 0.1. With G10A A56U U69G, the self-cleavage is 0.04. The value for G10A A20G U43C was 0.08. Under G9U U25C U41A stands 0.14; under G9U G16A C27U, 0.05; under G10C A45C U66C, 0.13.

As for G10A U43C U54A A57G C71U U78C, the self-cleavage amounted to 0.04.

G9U G24A C37G U41A G42C U74C: the self-cleavage is 0.03. Under G9U C23U A28U U48A U78C stands 0.12.

On to G10A U26A A56G U67A U72C, for which the self-cleavage came out at 0.04.

Regarding G10C A21G U26A A28U G30A U51A U58A, the self-cleavage is 0.05. Consider G10A A13G U25C U26C G42A A77U, for which the self-cleavage was 0.05. The value for G10A C17A U41C U54C A65G U80A was 0.14; that for G10A U25C C34A C38U C40U U54C was 1.16; that for G10A C38A U74C U78C was 0.05. Under G10A U41A U72C stands 0.08. For G9U C11A U60C, the self-cleavage stood at 0.06. Under G10A A21G U25C U48C stands 0.29; under G10A A15G A57U U74C U80A, 0.27. In the case of G9U C11U A20G U31A G52A A56G, the self-cleavage was found to be 0.03. Take G10A A18G A35U U49A A64G: the self-cleavage amounted to 0.04.

For G9U U25C U31G U41A U58C U80C, the self-cleavage stood at 0.04. The value for G9U U31C A75U was 0.05; that for G9U U25C A65G U72C was 0.17; that for G10A A28U G36A was 0.05.

In the case of G10A C17U G73A A77U, the self-cleavage was determined as 0.35.

For the variant G10A A21G U51C G61C, the self-cleavage was determined as 0.13. Under G10A A21G C38U A56G stands 0.11. Take G10C A13G U66C: the self-cleavage amounted to 0.16. Take G10A A13G U43C U58A: the self-cleavage was determined as 0.05. For the variant G10C A15U U26G U49C A56U U60C U78C, the self-cleavage is 0.04. Under G10C A15G U26C U67C U69A A77G stands 0.1.
